# The supplement of paper PMC9174493
# The other results are listed elsewhere or left out. Single values of this set are uncertain. Values with irradiation are relative to irradiated vehicle.
# Experiments:
# [1] = system: A549-Dual; test: NF-kB reporter (SEAP) activity, viability-corrected, relative to vehicle (fold change vs vehicle); higher = more activation of STING-IRF / NF-kB immune response reporter
# [2] = system: A549-Dual; test: ISRE reporter (Lucia luciferase) activity, viability-corrected, relative to vehicle (fold change vs vehicle); higher = more activation of STING-IRF / NF-kB immune response reporter
# 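Wherever NF-kB reporter (SEAP) activity, viability-corrected, relative to vehicle is given: viability correction based on the alamar blue assay, with concentrations leaving 10% survival or less dropped.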
Structure (SMILES),"NF-kB reporter ([1]; 0.1 µM, irradiation: 8 Gy/4 fr)","NF-kB reporter ([1]; 0.1 µM, irradiation: none)","NF-kB reporter ([1]; 0.3 µM, irradiation: 8 Gy/4 fr)","NF-kB reporter ([1]; 0.3 µM, irradiation: none)","NF-kB reporter ([1]; 1 µM, irradiation: 8 Gy/4 fr)","NF-kB reporter ([1]; 1 µM, irradiation: none)","NF-kB reporter ([1]; 3 µM, irradiation: 8 Gy/4 fr)","NF-kB reporter ([1]; 3 µM, irradiation: none)","NF-kB reporter ([1]; 10 µM, irradiation: 8 Gy/4 fr)","NF-kB reporter ([1]; 10 µM, irradiation: none)","ISRE reporter ([2]; 0.1 µM, irradiation: 8 Gy/4 fr)","ISRE reporter ([2]; 0.1 µM, irradiation: none)","ISRE reporter ([2]; 0.3 µM, irradiation: 8 Gy/4 fr)","ISRE reporter ([2]; 0.3 µM, irradiation: none)","ISRE reporter ([2]; 1 µM, irradiation: 8 Gy/4 fr)","ISRE reporter ([2]; 1 µM, irradiation: none)","ISRE reporter ([2]; 3 µM, irradiation: 8 Gy/4 fr)","ISRE reporter ([2]; 3 µM, irradiation: none)","ISRE reporter ([2]; 10 µM, irradiation: 8 Gy/4 fr)","ISRE reporter ([2]; 10 µM, irradiation: none)"
CC(C)c1nc(CN(C)C(=O)NC(CCN2CCOCC2)C(=O)NC(CCC(Cc2ccccc2)NC(=O)OCc2cncs2)Cc2ccccc2)cs1 (stereo not given) [Cobicistat (GS-9350)],1.36,1.32,1.06,1.77,0.956,1.83,1.04,1.49,1.11,0.979,1.18,1.26,1.13,1.39,1.14,1.48,1.35,1.14,1.18,1.39
CC(=O)Nc1ccccc1 [Acetanilide],0.93,1.55,1.15,2.11,1.5,1.21,1.63,1.18,1.12,0.919,1.07,1.25,1.02,1.25,0.988,1.15,1.06,1.21,0.965,0.833
CC(=O)OC(C)OC(=O)C(C)c1ccc(-c2ccccc2)c(F)c1 (stereo not given) [Flurbiprofen Axetil],1.08,0.991,1.06,0.937,1.07,0.836,1.14,0.913,0.894,1.13,1.03,0.888,0.921,0.589,0.719,0.62,0.824,0.981,0.828,0.812
CC1CC2C3CCC4=CC(=O)C=CC4(C)C3(F)C(O)CC2(C)C1(O)C(=O)CO (stereo not given) [Betamethasone],0.773,1.53,0.988,1.5,1.72,1.32,1.42,1.05,0.855,0.835,0.0741,0.22,0.0789,0.364,0.0736,0.251,0.0775,0.323,0.0642,0.331
CC(C(=O)[O-])c1ccc(CC2CCCC2=O)cc1.[Na+] (stereo not given) [Loxoprofen Sodium],1.56,0.897,1.14,1.24,1.15,1.01,1.06,0.841,1.07,1.15,1.06,1.08,1,0.904,1.21,0.769,0.754,1.11,0.8,0.803
COc1ccc(C2CNC(=O)C2)cc1OC1CCCC1 (stereo not given) [Rolipram],1.1,1.27,1.23,1.11,1.12,0.982,0.992,1.05,0.856,1.18,1.01,0.943,0.912,0.847,0.968,0.855,0.849,0.868,1.06,0.747
Cc1coc2c1C(=O)C(=O)c1c-2ccc2c1CCCC2(C)C [Tanshinone IIA],0.883,1.04,0.917,1.17,1.09,0.887,1.35,0.982,0.541,0.858,0.9,0.859,0.745,0.912,0.656,0.6,0.715,0.891,0.158,0.476
CC(CCC(=O)[O-])C1CCC2C3C(O)CC4CC(O)CCC4(C)C3CC(O)C12C.[Na+] (stereo not given) [Sodium cholate],0.795,0.945,0.888,0.909,0.971,0.749,0.903,0.723,0.816,0.721,0.813,0.934,0.746,1.05,0.708,0.871,0.815,0.867,0.903,0.636
CCCCCCNC(=O)n1cc(F)c(=O)[nH]c1=O [Carmofur],1.1,1.01,1.36,1.04,1.16,1.07,1.3,0.827,0.976,0.953,0.986,0.932,1.58,1.07,1.12,0.879,1.2,0.736,0.762,1.49
C=CC(=O)Nc1cc(Nc2nccc(-c3cn(C)c4ccccc34)n2)c(OC)cc1N(C)CCN(C)C.CS(=O)(=O)O [Osimertinib mesylate],1.13,1.27,1.01,1.05,1.15,1.36,1.17,1.32,1.07,1.46,1.22,1.48,1.23,1.33,1.27,1.09,1.67,2.28,1.47,3.45
O=C([O-])c1cc(N=Nc2ccc(O)c(C(=O)[O-])c2)ccc1O.[Na+].[Na+] [Olsalazine Sodium],1.36,0.834,1.41,0.779,1.1,0.937,1.05,0.988,0.944,0.766,0.961,0.758,0.84,0.725,0.731,0.73,0.804,0.975,0.617,0.583
CN1C(C(=O)Nc2ccccn2)=C(O)c2sccc2S1(=O)=O [Tenoxicam],0.936,1.55,1.09,1.79,1.07,1.2,1.53,1.18,1.09,0.952,1.04,1.08,1.03,1.29,0.665,0.997,0.98,1.23,1.15,0.955
